The text below walks through data of article PMC10002220, “In Vivo Reversal of P-Glycoprotein-Mediated Drug Resistance in a Breast Cancer Xenograft and in Leukemia Models Using a Novel, Potent, and Nontoxic Epicatechin EC31” (International Journal of Molecular Sciences, 2023).

Each structure is given as a SMILES string.

Data set [1] concerns the target T1, P-gp (Homo sapiens, UniProt P08183). Kind of data set: Intracellular EC31 or PTX accumulation in LCC6 versus LCC6MDR cells. Type of data set: cell-based. On the set-up: expressed in transfected cells; host or cells: MDA435/LCC6MDR (human breast cancer line, gift of Dr. Robert Clarke). The conditions noted are these: 150 min. From the text: N = 3 independent experiments.

For the next data set, the system named is P388ADR cells. Kind of data set: Drug resistance level: IC50 of anticancer drugs in P388ADR. The data set is classed as cell-based, mouse. As for the experimental part:
(§1) In the Western blot membrane, the total P-gp and β-actin expression in each lane was quantified with ImageJ software. The relative P-gp expression was an intensity ratio of P-gp band relative to the β-actin band. The relative P-gp expression of the resistant cell line relative to its respective wild type was presented as a bar chart. The plasma membrane P-gp levels of LCC6MDR and K562/P-gp relative to their wild types were determined through flow cytometry using antihuman P-gp-PE antibodies. (B) LCC6MDR and LCC6. (C) K562/P-gp and K562. (D) the drug resistance levels of three P-gp-overexpressing cell lines and their wild types were studied. The 3 pairs of cell lines were incubated with anticancer drugs paclitaxel (PTX), doxorubicin (DOX), and vincristine (VCR) for 3 days, and the % of cell survival was then determined. Their IC50 (nM) values were calculated using Prism 5.0. RF (relative fold) was a ratio of IC50 of anticancer drugs in a P-gp-overexpressing cell line relative to its respective wild type. N = 3 independent experiments. […] All cell lines were counterstained with DAPI. (E) LCC6 and LCC6MDR, (F) P388 and P338ADR, and (G) K562 and K562/P-gp. Bar = 8 µm. / = not determined.

In the next data set the test system is LCC6MDR xenograft. Kind of data set: In vivo efficacy in reversing PTX resistance in LCC6MDR tumor xenograft model. The conditions noted are these: PTX alone 12 mg/kg i.v., q2d x 14. The procedure:
(A) In vivo toxicity study of EC31 alone and of its combination with PTX was conducted. BALB/c mice were randomized into five groups with five mice in each group. Body weight of BALB/c mice during treatments was measured every two days. The treatment groups included (1) solvent control (5% NMP + 5% Cremophor EL + 90% PBS to dissolve EC31 and 5% Ethanol + 5% Cremophor EL + 90% PBS to dissolve PTX), (2) PTX (12 mg/kg i.v.), (3) EC31 (30 mg/kg i.p.), (4) EC31 (30 mg/kg i.p.) + PTX (12 mg/kg i.v.), or (5) EC31 (60 mg/kg i.p.) + PTX (12 mg/kg i.v.). The administration was performed every other day 12 times (q2d x 12). The loss of body weight or appetite and treatment-related mortality were monitored and defined as toxicity. […] The tumors were taken out, and their weights were measured. Intratumor concentration of EC31 or PTX was measured using UPLC-MS/MS, and the actual concentration of PTX or EC31 was normalized to the tumor weight. […] Tumor volume and body weight were monitored throughout the treatment period. […] The tumor volume, tumor weight, and doubling time were measured. The number of animal deaths was recorded during the treatment period. […]
The LCC6MDR tumor xenograft model was studied as it was previously. […] Tumor growth was measured with an electronic caliper on the injection day, and the tumor volume was calculated as reported previously.

Data set [2] in a line: Effect of modulators on the PK of PTX. The data set is classed as in vivo, BALB/c mice. The conditions noted are these: BALB/c, mouse, plasma, iv; PTX 12 mg/kg i.v. alone; read-out: AUC of PTX (AUC0–420min) (converted).
The subject of another data set is LCC6MDR cells. Kind of data set: Drug resistance level: IC50 of anticancer drugs in LCC6MDR. The data set is classed as cell-based, human. As for the experimental part: as §1
A further data set relates to LCC6 cells. Kind of data set: Drug resistance level: IC50 of anticancer drugs in LCC6. The data set is classed as cell-based. The conditions noted are these: Homo sapiens, LCC-6, 72 h; 3 days incubation. As for the experimental part:
as §1

For data set [3], the system named is P-gp. The conditions noted are these: cited from earlier work.
Data set [4] relates to P-gp. On the set-up: method as in doi:10.1016/j.jff.2011.05.005. The conditions noted are these: cited from earlier work.
Data set [5] addresses T1, P-gp. Kind of data set: Vanadate-sensitive P-gp ATPase activity assay (P-gp-Glo).
In data set [6] the test system is P-gp. Kind of data set: EC50 for reversing drug resistance in P388ADR cells (cell proliferation assay).
Data set [7] concerns the target T1, P-gp. As to the kind of experiment: Intracellular DOX accumulation in LCC6MDR cells. Type of data set: cell-based. On the set-up: expressed in transfected cells; host or cells: MDA435/LCC6MDR (human breast cancer line, gift of Dr. Robert Clarke). The conditions noted are these: 1 µM; P-gp-overexpressing cells, cell line not specified. As for the experimental part:
Figure 2 Effect of methylated catechin derivatives on intracellular DOX accumulation and DOX efflux in the P-gp-overexpressing cancer cells. […] Then, the cells were washed, and the intracellular DOX level was measured using flow cytometer. (A) LCC6MDR, (B) P388ADR, and (C) K562/P-gp. […] (D) In the efflux study, P388ADR cells were firstly incubated with 20 µM DOX for 45 min. […] At 60, 120, and 180 min, the cells were harvested, and the intracellular DOX level was measured. At 180 min, ** represents p < 0.01, and *** represents p < 0.001, both being relative to P388ADR incubated with DMSO only. […] N = 3 independent experiments. DMSO was used as a solvent control, and the highest amount used was 0.5%.

Data set [8] has as its target T1, P-gp. On the set-up: expressed in transfected cells; host or cells: MDA435/LCC6MDR (human breast cancer line, gift of Dr. Robert Clarke). The conditions noted are these: EGCG at 10 μM; IC50 of PTX without/with modulator; cited from earlier work.
The target in data set [9] is T1, P-gp. Kind of data set: EC50 for reversing drug resistance in LCC6MDR cells (cell proliferation assay). The conditions noted are these: EC50 for Reversing MDR.
The test system of data set [10] is P-gp. As to the kind of experiment: EC50 for reversing drug resistance, summarised over the three P-gp-overexpressing cell lines. The conditions noted are these: read-out: EC50 of P-gp-modulating activity; as stated in the abstract.
For data set [11], the target named is T1, P-gp. As to the kind of experiment: EC50 for reversing drug resistance in K562/P-gp cells (cell proliferation assay). The conditions noted are these: EC50 for Reversing MDR.

T1 sequence (P08183 whole entry): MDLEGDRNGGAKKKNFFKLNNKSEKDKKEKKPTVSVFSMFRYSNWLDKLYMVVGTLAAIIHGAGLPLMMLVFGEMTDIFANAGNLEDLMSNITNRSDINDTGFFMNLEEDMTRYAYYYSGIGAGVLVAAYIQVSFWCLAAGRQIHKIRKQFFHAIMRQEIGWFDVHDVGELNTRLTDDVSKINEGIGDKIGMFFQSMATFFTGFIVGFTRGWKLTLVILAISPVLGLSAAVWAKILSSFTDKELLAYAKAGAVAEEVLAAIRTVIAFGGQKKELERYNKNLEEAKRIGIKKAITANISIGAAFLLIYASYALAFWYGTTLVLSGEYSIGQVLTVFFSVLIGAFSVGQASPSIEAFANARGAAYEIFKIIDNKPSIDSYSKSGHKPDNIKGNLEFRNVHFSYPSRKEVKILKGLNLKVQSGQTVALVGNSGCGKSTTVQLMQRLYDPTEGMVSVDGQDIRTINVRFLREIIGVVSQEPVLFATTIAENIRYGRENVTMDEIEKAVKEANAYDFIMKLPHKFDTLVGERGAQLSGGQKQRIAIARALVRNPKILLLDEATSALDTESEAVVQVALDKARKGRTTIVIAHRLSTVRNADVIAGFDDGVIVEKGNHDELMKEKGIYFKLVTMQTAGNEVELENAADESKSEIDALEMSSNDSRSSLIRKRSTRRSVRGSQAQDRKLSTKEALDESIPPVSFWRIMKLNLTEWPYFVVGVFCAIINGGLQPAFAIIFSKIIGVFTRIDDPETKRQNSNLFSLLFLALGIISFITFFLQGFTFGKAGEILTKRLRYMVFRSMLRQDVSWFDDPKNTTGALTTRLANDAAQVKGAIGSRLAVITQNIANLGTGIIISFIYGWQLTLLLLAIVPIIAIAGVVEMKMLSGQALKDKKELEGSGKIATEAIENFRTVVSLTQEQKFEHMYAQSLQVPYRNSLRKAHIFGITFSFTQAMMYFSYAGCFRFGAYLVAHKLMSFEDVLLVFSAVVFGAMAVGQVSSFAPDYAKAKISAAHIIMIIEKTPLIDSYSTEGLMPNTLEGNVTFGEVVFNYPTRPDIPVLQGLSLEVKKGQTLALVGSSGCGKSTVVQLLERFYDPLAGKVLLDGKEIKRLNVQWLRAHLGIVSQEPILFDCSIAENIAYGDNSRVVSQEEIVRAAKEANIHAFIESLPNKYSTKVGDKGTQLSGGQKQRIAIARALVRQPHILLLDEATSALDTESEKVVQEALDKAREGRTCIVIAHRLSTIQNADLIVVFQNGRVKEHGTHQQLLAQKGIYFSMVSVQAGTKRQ

As for `CC(=O)O[C@H]1C(=O)[C@@]2(C)[C@H]([C@H](OC(=O)c3ccccc3)[C@]3(O)C[C@H](OC(=O)[C@H](O)[C@@H](NC(=O)c4ccccc4)c4ccccc4)C(C)=C1C3(C)C)[C@]1(OC(C)=O)CO[C@@H]1C[C@@H]2O` [PTX, paclitaxel], the “Intracellular EC31 or PTX concentration, LCC6 relative to LCC6MDR” value on P-gp [1] (1 μM) is listed as 2.3 ×; at P-gp [1] (5 μM) it was 3.4 ×. Further, the results for the “RF (relative fold)” value in the data set on P388ADR cells (IC50 in P388ADR relative to P388) and in the data set with LCC6MDR cells (IC50 in LCC6MDR relative to LCC6) were 28.3 and 80.3, respectively. In addition, the IC50 with P388ADR cells (Mus musculus, P388/ADR, 72 h, 3 days incubation) is 1790 ± 139 nM; with LCC6MDR cells (Homo sapiens, LCC6MDR, 72 h, 3 days incubation) it was 152 ± 9.7 nM; with LCC6 cells it was 1.9 ± 0.2 nM. Also, the “Doubling time” value with LCC6MDR xenograft amounted to 11.1 days. In addition, the AUC(0-t) in [2] was 6680 ng·h/mL.

For `COc1cc2c(cc1OC)CN(CCc1ccc(NC(=O)c3cc(OC)c(OC)cc3NC(=O)c3cnc4ccccc4c3)cc1)CC2` [Tariquidar, tariquidar], the “stimulation of P-gp ATPase activity” value with P-gp [3] is on record as 10 fold.

For `COc1cc([C@H]2Oc3cc(O)cc(O)c3C[C@H]2OC(=O)c2cc(O)c(O)c(O)c2)cc(O)c1O` [EGCG-3′OMe], the “improvement of P-gp-modulating activity relative to EGCG” value in the data set with P-gp [4] is 2 fold.

As for `O=C(O[C@@H]1Cc2c(O)cc(O)cc2O[C@@H]1c1cc(O)c(O)c(O)c1)c1cc(O)c(O)c(O)c1` [EGCG, epigallocatechin gallate, reference compound], the “P-gp ATPase activity, fold change relative to basal” value was determined as 1.4 fold on P-gp [5] (10 µM) and 0.7 fold on P-gp [5] (70 µM). Moreover, the EC50 in the data set on P-gp [6] (read-out: EC50 for Reversing MDR, DOX Resistance, P388ADR, concentration that reduces IC50 of DOX by half) was above 10 µM; in the data set on P-gp [6] (read-out: EC50 for Reversing MDR, PTX Resistance, P388ADR, concentration that reduces IC50 of PTX by half) it was above 10 µM; on P-gp [9] (DOX Resistance, concentration that reduces IC50 of DOX by half) it was above 10 µM; at P-gp [9] (PTX Resistance, concentration that reduces IC50 of PTX by half), above 10 µM; in the data set with P-gp [10], above 10 µM; on P-gp [11] (DOX Resistance, K562/P-gp, concentration that reduces IC50 of DOX by half) it was above 10 µM. The EC50 on P-gp [11] (VCR Resistance, K562, concentration that reduces IC50 of VCR by half, column head prints K562) is above 10 µM. For the same compound, on P-gp [7], the “effect on DOX accumulation” value is “no effect”. In addition, the “LCC6MDR P-gp-modulating activity RF (relative fold)” value at P-gp [8] is given as 1.2.
